Measured values as given in the supplement of paper PMC7826260.
This is one part of the list. Cleavage of a single-stranded DNA pool by Rep nickase domains was read by sequencing (1 h at 37 °C, 3 µM enzyme); the outer parts of the 90-letter strands are left off. Values are log2 of uncut reads against the no-enzyme pool; strong cutting gives strongly negative numbers. There is no active / inactive call. Because reads are shares of a total, they shift together; values above 0 arise when much of the pool is cut.

Tests used:
Assay in all cases: uncleaved DNA left, log2 of reads against the no-enzyme library (log2 ratio); higher = less cleavage (more negative = more Rep cleavage of the k-mer); sequences stand for … in CTCGTCCG…ACCGGAGA
[1] = system: T1, Rep nickase domain of Muscovy duck circovirus
T1 sequence (residues 1-111, tag not shown): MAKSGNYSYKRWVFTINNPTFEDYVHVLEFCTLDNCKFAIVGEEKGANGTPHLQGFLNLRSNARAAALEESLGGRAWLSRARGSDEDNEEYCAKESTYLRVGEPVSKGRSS
Procedure: (§1)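 A pool of 90-nt single-stranded DNAs with seven random bases just before the constant AC of the nick site (name = the seven bases) was cut by 3 µM recombinant His6-SUMO-tagged Rep nickase domain (300 nM DNA, 50 mM HEPES pH 8.0, 50 mM NaCl, 1 mM MnCl2, 1 h, 37 °C, three replicates). Uncut DNA was amplified and sequenced.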

[2] = system: T2, Rep nickase domain of banana bunchy top virus
T2 sequence (residues 1-94, tag not shown): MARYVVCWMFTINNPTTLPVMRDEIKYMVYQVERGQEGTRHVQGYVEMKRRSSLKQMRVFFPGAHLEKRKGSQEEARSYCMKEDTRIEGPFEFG
Procedure: as §1

[3] = system: T3, Rep nickase domain of cabbage leaf curl virus
T3 sequence (residues 1-116, tag not shown): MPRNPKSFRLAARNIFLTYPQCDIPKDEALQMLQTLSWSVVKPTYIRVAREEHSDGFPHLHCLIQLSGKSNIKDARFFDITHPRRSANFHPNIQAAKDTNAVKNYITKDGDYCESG
Procedure: as §1

[4] = system: T4, Rep nickase domain of chickpea chlorotic dwarf virus
T4 sequence (residues 1-124, tag not shown): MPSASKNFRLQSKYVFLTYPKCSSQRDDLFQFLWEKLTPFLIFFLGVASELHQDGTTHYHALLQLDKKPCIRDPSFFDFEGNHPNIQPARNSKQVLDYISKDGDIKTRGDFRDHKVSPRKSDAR
Procedure: as §1

[5] = system: T5, Rep nickase domain of faba bean necrotic yellows virus
T5 sequence (residues 1-98, tag not shown): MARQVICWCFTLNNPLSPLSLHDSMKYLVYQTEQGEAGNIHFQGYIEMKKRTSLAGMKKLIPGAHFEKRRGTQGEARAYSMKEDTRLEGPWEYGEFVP
Procedure: as §1

[6] = system: T6, Rep nickase domain of maize striate mosaic virus
T6 sequence (residues 1-117, tag not shown): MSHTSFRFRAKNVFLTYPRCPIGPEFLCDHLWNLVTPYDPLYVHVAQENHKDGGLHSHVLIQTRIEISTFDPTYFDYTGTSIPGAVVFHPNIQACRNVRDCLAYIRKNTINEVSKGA
Procedure: as §1

[7] = system: T7, Rep nickase domain of porcine circovirus 2
T7 sequence (residues 2-116, tag not shown): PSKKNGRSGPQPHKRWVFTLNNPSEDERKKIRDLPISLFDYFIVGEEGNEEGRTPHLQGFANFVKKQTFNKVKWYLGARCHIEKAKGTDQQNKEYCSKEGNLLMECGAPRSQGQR
Procedure: as §1

[8] = system: T8, Rep nickase domain of tomato golden mosaic virus
T8 sequence (residues 1-124, tag not shown): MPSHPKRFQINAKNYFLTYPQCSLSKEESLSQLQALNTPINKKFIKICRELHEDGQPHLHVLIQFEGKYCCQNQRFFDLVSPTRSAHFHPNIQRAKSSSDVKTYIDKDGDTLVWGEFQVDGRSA
Procedure: as §1

[9] = system: T9, Rep nickase domain of tomato yellow leaf curl virus
T9 sequence (residues 1-136, tag not shown): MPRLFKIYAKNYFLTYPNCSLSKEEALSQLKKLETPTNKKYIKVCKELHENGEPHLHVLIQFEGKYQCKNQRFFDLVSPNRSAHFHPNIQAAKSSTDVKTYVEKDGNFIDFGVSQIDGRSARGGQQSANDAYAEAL
Procedure: as §1

[10] = system: T10, Rep nickase domain of wheat dwarf virus
T10 sequence (residues 1-137, tag not shown): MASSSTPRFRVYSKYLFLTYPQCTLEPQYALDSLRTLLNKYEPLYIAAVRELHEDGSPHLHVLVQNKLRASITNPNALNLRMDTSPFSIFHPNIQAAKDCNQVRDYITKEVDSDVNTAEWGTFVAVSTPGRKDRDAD
Procedure: as §1

| Sequence | uncleaved DNA left (log2) [1] | uncleaved DNA left (log2) [2] | uncleaved DNA left (log2) [3] | uncleaved DNA left (log2) [4] | uncleaved DNA left (log2) [5] | uncleaved DNA left (log2) [6] | uncleaved DNA left (log2) [7] | uncleaved DNA left (log2) [8] | uncleaved DNA left (log2) [9] | uncleaved DNA left (log2) [10] |
| --- | --- | --- | --- | --- | --- | --- | --- | --- | --- | --- |
| GACACGC | -0.0554 | -0.0394 | -0.195 | -0.0384 | 0.0392 | -0.496 | 0.00729 | -0.0649 | -0.0717 | -0.00327 |
| GCGGACG | 0.131 | 0.135 | 0.634 | 1.57 | 0.204 | 1.49 | 0.318 | 0.134 | 0.13 | 0.17 |
| AATCCTC | -0.0296 | -0.059 | 0.189 | -0.0473 | 0.0965 | 0.0659 | -0.116 | 0.00275 | -0.0122 | 0.0299 |
| TCAACTT | 0.0527 | -0.0102 | -0.338 | -2.6 | 0.0362 | -0.295 | -0.34 | 0.0364 | 0.00614 | -0.0429 |
| ATCGCCG | 0.014 | -0.0675 | -0.806 | -0.131 | 0.0121 | -0.915 | 0.0818 | 0.0169 | -0.0478 | -0.158 |
| ACAACCT | -0.0772 | 0.0585 | -0.275 | -2.08 | 0.043 | -0.396 | -0.254 | -0.00895 | -0.0778 | -0.0162 |
| GTGCTGC | -0.0365 | -0.0399 | 0.179 | 0.545 | -0.081 | 1.25 | 0.0472 | 0.108 | -0.00859 | -0.00534 |
| ATTCTAA | -0.0962 | -0.109 | -0.0672 | -0.329 | -0.0441 | -0.548 | -0.0072 | 0.0246 | -0.00489 | -0.186 |
| AAGACCC | 0.116 | 0.126 | 0.632 | 1.35 | 0.142 | 1.64 | 0.118 | 0.0631 | 0.0142 | 0.122 |
| TATCACG | 0.0718 | 0.0657 | -0.714 | -0.821 | 0.165 | -1.13 | 0.187 | 0.0739 | 0.0116 | -0.0175 |
| ACGTCAG | 0.166 | -0.0339 | -0.534 | -0.281 | 0.063 | -1.08 | 0.202 | 0.109 | -0.0054 | 0.0238 |
| CATTGCG | -0.201 | -0.0338 | 0.594 | 1.45 | 0.107 | 2.02 | 0.205 | 0.00394 | 0.16 | -0.0259 |
| GTTCTCA | 0.0836 | 0.183 | 0.358 | 0.955 | 0.0299 | 1.89 | 0.197 | 0.0792 | 0.119 | 0.11 |
| TGACCAT | -0.0399 | -0.0769 | 0.422 | 0.633 | -0.0208 | 1.09 | -0.125 | -0.0885 | -0.0235 | 0.103 |
| GTTACTA | -0.00791 | 0.122 | 0.362 | 0.875 | 0.0142 | 1.84 | 0.102 | 0.144 | 0.238 | 0.159 |
| CTACTTC | 0.00531 | -0.0775 | -0.0443 | -1.78 | -0.0648 | -0.732 | 0.0461 | -0.0771 | -0.0886 | -0.167 |
| TAGACAG | 0.00865 | 0.0115 | 0.0631 | 0.485 | 0.121 | 0.464 | 0.183 | -0.0585 | 0.0289 | 0.108 |
| TTAGCGA | 0.0811 | -0.139 | -0.83 | -0.288 | 0.0366 | -0.973 | 0.101 | -0.164 | -0.0643 | -0.0683 |
| CGACGCG | -0.0298 | 0.2 | -0.592 | -0.182 | 0.165 | -0.764 | 0.254 | 0.0648 | 0.298 | -0.0622 |
| TTGTCTA | -0.0526 | -0.024 | 0.0975 | -0.503 | 0.0191 | -0.0764 | -0.245 | -0.0643 | -0.0108 | -0.0587 |
| CGCTCAT | -0.0795 | -0.0828 | -0.0091 | -0.266 | -0.0976 | -0.273 | -0.405 | -0.138 | 0.0734 | 0.0272 |
| TAGATCG | 0.109 | -0.0126 | -0.877 | -0.383 | 0.0127 | -1.23 | 0.0349 | -0.0648 | 0.0635 | -0.0149 |
| AGAGTGG | 0.197 | 0.0186 | -0.0326 | 0.0625 | 0.0837 | -0.4 | 0.099 | 0.126 | -0.0221 | 0.0784 |
| GGGCTGG | 0.0439 | -0.0503 | 0.656 | 1.64 | 0.034 | 2.05 | 0.216 | 0.105 | -0.0302 | 0.15 |
| GCTGTTC | -0.0254 | 0.0766 | 0.0412 | 0.203 | -0.0289 | 0.438 | -0.0605 | -0.0378 | 0.0184 | 0.0133 |
| CATGGGA | 0.00357 | -0.199 | -0.213 | -0.117 | -0.186 | -0.806 | 0.0518 | -0.221 | -0.0872 | -0.218 |
| TAGATCA | 0.0399 | 0.124 | 0.194 | -1.4 | -0.000157 | 0.691 | -1.79 | 0.0183 | 0.103 | 0.176 |
| GTGTGAA | -0.0154 | 0.0671 | 0.352 | 0.932 | -0.0661 | 1.66 | 0.0411 | 0.146 | 0.0908 | 0.118 |
| TGTCTAT | -0.0373 | -0.042 | 0.187 | 0.0704 | 0.0824 | 0.52 | -0.0782 | -0.121 | -0.0155 | 0.122 |
| GTTTTCT | -0.158 | -0.049 | 0.25 | 0.655 | -0.0434 | 1.57 | -0.257 | 0.0965 | -0.0354 | 0.0303 |
